The record followed here is PMC4149798.

Sequences of proteins named here, by UniProt entry; tags and fusion partners are left off. A change or cut given only in a name is not applied to a line headed by its entry.
UniProt P05205: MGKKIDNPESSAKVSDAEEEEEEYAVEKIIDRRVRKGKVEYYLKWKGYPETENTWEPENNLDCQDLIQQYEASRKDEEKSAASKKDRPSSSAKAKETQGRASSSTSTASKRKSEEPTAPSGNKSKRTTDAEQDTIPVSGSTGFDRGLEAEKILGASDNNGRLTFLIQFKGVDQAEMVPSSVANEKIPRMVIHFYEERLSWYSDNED
UniProt P45975: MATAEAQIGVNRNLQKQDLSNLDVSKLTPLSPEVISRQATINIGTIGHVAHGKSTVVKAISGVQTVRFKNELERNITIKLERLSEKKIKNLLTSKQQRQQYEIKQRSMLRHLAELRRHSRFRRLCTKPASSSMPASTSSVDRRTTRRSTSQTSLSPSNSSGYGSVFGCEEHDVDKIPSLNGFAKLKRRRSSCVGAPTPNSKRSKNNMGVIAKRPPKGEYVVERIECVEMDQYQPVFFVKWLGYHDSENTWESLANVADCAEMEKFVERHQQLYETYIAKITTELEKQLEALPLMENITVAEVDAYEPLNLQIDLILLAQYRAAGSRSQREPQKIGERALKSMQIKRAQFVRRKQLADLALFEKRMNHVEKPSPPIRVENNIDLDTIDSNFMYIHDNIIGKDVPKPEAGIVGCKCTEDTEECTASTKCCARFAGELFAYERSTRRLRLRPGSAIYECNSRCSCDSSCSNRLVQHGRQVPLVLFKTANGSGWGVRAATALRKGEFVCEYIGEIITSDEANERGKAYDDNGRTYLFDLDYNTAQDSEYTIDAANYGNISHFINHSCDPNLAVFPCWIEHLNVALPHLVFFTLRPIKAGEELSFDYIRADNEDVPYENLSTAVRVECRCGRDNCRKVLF

Assay [1] has as its target T1, purified native H1 (in reconstituted chromatin) (Drosophila) (UniProt P02255).
T1 sequence: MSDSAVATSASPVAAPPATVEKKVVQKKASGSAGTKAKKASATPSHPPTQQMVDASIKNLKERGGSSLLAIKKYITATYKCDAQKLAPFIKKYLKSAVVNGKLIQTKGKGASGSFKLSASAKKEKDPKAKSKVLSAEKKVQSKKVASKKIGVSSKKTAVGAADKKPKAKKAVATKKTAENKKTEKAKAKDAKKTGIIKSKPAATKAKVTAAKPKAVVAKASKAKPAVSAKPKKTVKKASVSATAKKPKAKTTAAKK
The assay can be described thus: in vitro ChIP; about 0.5 pmol His6-tagged protein with 0.2 pmol plasmid DNA, H1-containing or H1-free reconstituted chromatin; 50 mM Tris-HCl pH 7.9, 5 mM MgCl2, 4 mM DTT, 2 ug/ml BSA, 15 min at 27°C; cross-linked, immunoprecipitated with anti-His6, plasmid fragment measured by real-time PCR; both purified. Background: In qPCR the cycle at which signal appears reflects the starting amount.

Assay [2] deals with T1, purified native H1 (in reconstituted chromatin) (Drosophila). The description is as above. This is another data set of the same source.
In assay [3] the target is T2, GST fusion of H1 globular domain (H1-G, residues 41-119) (Drosophila) (UniProt P02255).
T2 sequence: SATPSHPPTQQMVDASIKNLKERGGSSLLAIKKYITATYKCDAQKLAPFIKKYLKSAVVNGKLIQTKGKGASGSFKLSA
Nature of the assay: pull-down; GST or GST fusion proteins incubated with purified STAT92E-His6, recovered on glutathione-Sepharose; bound STAT92E-His6 detected by anti-His6 western; both purified.

Assay [4] addresses T3, GST fusion of H1 N-terminal domain (H1-N, amino acid residues 1-40) (Drosophila) (UniProt P02255).
T3 sequence: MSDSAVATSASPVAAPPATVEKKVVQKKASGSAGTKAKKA
Described as above.

Assay [5] deals with GST-HP1 (full-length heterochromatin protein 1 fused to GST) (Drosophila) (UniProt P05205). Described as above.
Assay [6] deals with T4, GST fusion of H1 C-terminal domain (H1-C, 120-256) (Drosophila) (UniProt P02255).
T4 sequence: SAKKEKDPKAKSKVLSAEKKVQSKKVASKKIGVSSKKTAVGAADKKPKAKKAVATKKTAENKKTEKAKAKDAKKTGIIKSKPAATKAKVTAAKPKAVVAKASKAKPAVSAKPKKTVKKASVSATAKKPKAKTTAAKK
Described as above.

The target in assay [7] is T5, GST-H1 (full-length linker histone H1 fused to glutathione-S-transferase) (Drosophila) (UniProt P02255).
T5 sequence: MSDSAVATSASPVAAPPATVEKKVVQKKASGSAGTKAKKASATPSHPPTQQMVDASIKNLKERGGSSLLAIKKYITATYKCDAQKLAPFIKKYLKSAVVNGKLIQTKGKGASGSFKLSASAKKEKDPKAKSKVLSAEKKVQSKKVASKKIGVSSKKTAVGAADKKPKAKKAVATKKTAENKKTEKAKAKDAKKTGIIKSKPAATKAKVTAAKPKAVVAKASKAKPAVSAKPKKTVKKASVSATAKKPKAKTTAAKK
Described as above.

Where two headings read alike, the source gives them in different places. No constants are given. Whether binding was seen depends on the method and setting. Some entries that bind do so weakly or less than the wild type. For some of these results: Sequences can lack the tags named with a protein.

As to “Su(var)3-9-His6 (from UniProt P45975 1-635) (enzyme)”, the binding result in assay [1] was “binds”.

B1: STAT92E-His6 (protein, UniProt Q24151 1-761)
chain: MSLWKRISSHVDCEQRMAAYYEEKGMLELRLCLAPWIEDRIMSEQITPNTTDQLERVALKFNEDLQQKLLSTRTASDQALKFRVVELCALIQRISAVELYTHLRSGLQKELQLVTEKSVAATAGQSMPLNPYNMNNTPMVTGYMVDPSDLLAVSNSCNPPVVQGIGPIHNVQNTGIASPALGMVTPKVELYEVQHQIMQSLNEFGNCANALKLLAQNYSYMLNSTSSPNAEAAYRSLIDEKAAIVLTMRRSFMYYESLHEMVIHELKNWRHQQAQAGNGAPFNEGSLDDIQRCFEMLESFIAHMLAAVKELMRVRLVTEEPELTHLLEQVQNAQKNLVCSAFIVDKQPPQVMKTNTRFAASVRWLIGSQLGIHNNPPTVECIIMSEIQSQRFVTRNTQMDNSSLSGQSSGEIQNASSTMEYQQNNHVFSASFRNMQLKKIKRAEKKGTESVMDEKFALFFYTTTTVNDFQIRVWTLSLPVVVIVHGNQEPQSWATITWDNAFAEIVRDPFMITDRVTWAQLSVALNIKFGSCTGRSLTIDNLDFLYEKLQREERSEYITWNQFCKEPMPDRSFTFWEWFFAIMKLTKDHMLGMWKAGCIMGFINKTKAQTDLLRSVYGIGTFLLRFSDSELGGVTIAYVNENGLVTMLAPWTARDFQVLNLADRIRDLDVLCWLHPSDRNASPVKRDVAFGEFYSKRQEPEPLVLDPVTGYVKSTLHVHVCRNGENGSTSGTPHHAQESMQLGNGDFGMADFDTITNFENF
As to B1, the binding entry in assay [2] was “binds”; in assay [3] it was “no binding”; in assay [4], “no binding”; in assay [5], “binds”; in assay [6] it was “binds”; in assay [7], “binds”.
